# Measurements: the supplement of paper PMC3334620
# Whole data set: some 33,000 sequences, median “E-score (-0.5 to 0.5)” near -0.013, cut for the highest 2% near 0.3. This is one part of the list.
# Target: T1, Msn1 (UniProt P22148)
# T1 sequence: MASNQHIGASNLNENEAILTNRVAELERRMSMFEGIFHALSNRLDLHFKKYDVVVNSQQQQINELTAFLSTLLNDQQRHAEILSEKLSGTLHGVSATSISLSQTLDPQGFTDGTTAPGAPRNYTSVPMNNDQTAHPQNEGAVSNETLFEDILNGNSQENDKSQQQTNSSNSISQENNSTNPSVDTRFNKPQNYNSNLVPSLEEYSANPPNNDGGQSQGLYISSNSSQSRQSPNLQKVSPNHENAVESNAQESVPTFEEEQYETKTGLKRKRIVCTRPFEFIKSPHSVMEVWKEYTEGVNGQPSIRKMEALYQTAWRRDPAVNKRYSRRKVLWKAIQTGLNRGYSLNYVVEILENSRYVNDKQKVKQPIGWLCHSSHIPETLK
# Assay: PBM E-score (8-mer binding enrichment) (E-score (-0.5 to 0.5)); higher = stronger / more preferred TF binding; most listed sequences are background and not binding sites
# Conditions: protein concentration: 200 nM; construct: GST-full length
# Outline: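 PURExpress in vitro transcription/translation supplied GST-tagged yeast transcription factors, either full-length or DNA-binding domain. Applied at about 100-200 nM to universal all-10-mer Agilent arrays double-stranded by primer extension, the bound protein was detected with fluorescent anti-GST. E-scores, modified Wilcoxon-Mann-Whitney statistics, were given by the Universal PBM Analysis Suite to ungapped eight-base words pooled with their reverse complements after masliner normalisation.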
row,Sequence,PBM E-score
1,ATCTTGTG,-0.0155
2,CCCCGGCC,-0.234
3,CATAACCG,0.0359
4,AGCATTCG,-0.173
5,ATCATAAC,0.0912
6,GGATCTTA,0.0711
7,CCAGTAGA,-0.0137
8,CTAGAAGC,-0.134
9,AGGATGCC,-0.214
10,ACAGATTA,-0.0624
11,AGTAGAAC,-0.0741
12,ACCTTAGA,-0.011
13,AGAAGCTG,0.00291
14,CAGGGCCG,-0.158
15,AGTATAAC,-0.0244
16,CGGAGTCA,-0.164
17,GGTTAACA,0.0815
18,CCCGGCTA,-0.175
19,CAACCCTC,-0.0735
20,ATTGCTGC,-0.0878
21,CCTGGCAC,-0.242
22,AATTAGTG,0.33

row,Sequence,PBM E-score
1,CTATTAAA,0.179
2,TCGTTCAA,0.103
3,GAATCCCA,-0.15
4,CAGGTCTC,-0.00322
5,TATCCCGA,0.0915
6,ATCTTAAC,0.168
7,CAAAAAGC,0.172
8,CGCGCGGC,0.0924
9,AGGTTTAG,-0.15
10,AACAATTC,0.0237
11,ATTGTCCA,0.466
12,ACTGAACC,-0.0826
13,CTGATGTC,0.282
14,GGGCATCA,-0.253
15,AACGGCGA,0.26
16,CGGTACAC,0.123
17,GACTGATA,-0.122
18,AGCTCCGC,0.00957
19,ACTAACGC,-0.108
20,AACAAGAC,0.135
21,AATGGTGC,-0.0712
22,AGGGGGGA,-0.317

row,Sequence,PBM E-score
1,ATTCTTCA,0.0047
2,AATATCTG,0.0275
3,TAGTTCCA,0.162
4,CACTGGGA,0.131
5,ACGTATCT,-0.0508
6,CCAATGCC,-0.181
7,ATCGATTA,0.0588
8,GCACTACA,-0.194
9,AAGGGCCT,-0.235
10,GAAACCGC,0.113
11,AATGTTGG,0.0344
12,ATTTAACG,0.225
13,CGTAGCCC,-0.24
14,AATGGACG,0.185
15,GAGCGTCC,-0.0385
16,AGAGTCGC,-0.0259
17,ATGACACC,0.0663
18,ACTCCTAG,-0.216
19,GGGGCTGA,-0.148
20,TCGGAACA,0.268
21,CGTATTTA,0.0612
22,CAGGGCCC,-0.274

row,Sequence,PBM E-score
1,ACTCTCAA,-0.188
2,AGGCTACA,-0.0622
3,CGATCAGC,-0.0543
4,AAGGTTAG,-0.0111
5,AGATCCCG,0.143
6,GGCCAGTA,-0.205
7,CTGTTAAC,0.134
8,CACCTCTA,-0.0449
9,CCAGCACC,-0.33
10,CCTTACCA,-0.00326
11,AATGTTAT,0.131
12,ACCACCCC,-0.311
13,ACTTAAAG,0.0376
14,CGGCTTGA,-0.0233
15,TAAACAAA,0.112
16,CAACGCCC,-0.0372
17,CCGACAGG,-0.0401
18,ATCGCGTG,0.143
19,CAATACAG,0.0204
20,CTACAATC,0.0383
21,CTTTGGAA,0.0683
22,CGGATATA,0.0681

row,Sequence,PBM E-score
1,CCTTAATC,-0.105
2,CGCTGCTC,-0.155
3,AAATTCGC,0.159
4,CACCCGCA,-0.178
5,GCGCTTAC,-0.0967
6,AACAACAT,-0.0176
7,AGTGTAGG,-0.0552
8,ACTCAAGT,-0.113
9,TGCGGACA,0.427
10,GGGCTACA,-0.0374
11,GACATAAC,0.396
12,CACAGAGC,0.0229
13,AGATTTTG,0.0738
14,CACGTGCA,0.0963
15,CTTAGCAA,-0.0942
16,ACTGATTC,0.0073
17,GAAATTCA,0.103
18,AGCTTAAA,0.0461
19,CGGTAAGC,-0.182
20,AACCTATG,-0.0616
21,GTCGCGAC,0.349
